The record followed here is PubChem BioAssay AID1346428 (National Center for Advancing Translational Sciences (NCATS), 2018).

Each structure is given as a SMILES string. “And” between values parts separate entries of the source, which are not always exact repeats. Equal values may be shown once. Hit rate of the full screen: of about 48,000 compounds, about 1,200 (2.5%) were called active. Roughly 2% stayed inconclusive and do not appear here.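 How the source made its calls: active means activation of at least 60% and not above a set upper limit (about 1 call in 100 departs from these limits); inconclusive means activation of 40% to 60%, or above that upper limit; inactive means activation under 40%.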 The list shows a part of the results.

The assay deals with Probable G-protein coupled receptor 32 (Homo sapiens) (UniProt O75388). In words: qHTS for Agonists of Human Resolvin D1 Receptor DRV1. Further: 0% is about no effect. To be noted: CHO-K1 GPR32 beta-arrestin PathHunter luminescence, 90 min; at 76.9 µM; hits give high values; zero percent set by DMSO-only wells. In a few lines: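 CHO-K1 cells stably expressing ProLink-tagged GPR32 and Enzyme Activator-tagged beta-arrestin were seeded at 2,500 cells/well overnight, exposed to compounds for 90 min at 37 °C, then read by beta-Gal complementation chemiluminescence after 1 h detection reagent.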
Chain of UniProt O75388 (O75388 whole entry, looked up): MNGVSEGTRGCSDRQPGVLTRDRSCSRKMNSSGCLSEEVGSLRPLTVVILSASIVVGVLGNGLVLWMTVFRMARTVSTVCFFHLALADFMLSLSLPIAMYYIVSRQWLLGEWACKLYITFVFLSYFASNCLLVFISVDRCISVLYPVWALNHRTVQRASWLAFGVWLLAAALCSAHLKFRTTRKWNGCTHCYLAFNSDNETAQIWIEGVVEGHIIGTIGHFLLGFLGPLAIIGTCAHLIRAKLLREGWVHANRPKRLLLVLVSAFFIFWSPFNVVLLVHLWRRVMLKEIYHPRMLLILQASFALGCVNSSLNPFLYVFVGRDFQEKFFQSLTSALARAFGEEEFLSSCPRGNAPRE
Take `O=C(CCn1cnc2onc(-c3ccc(F)cc3)c2c1=O)N1CCN(c2cccc(Cl)c2)CC1`: the activation is inactive: -2.4%.
In the case of `CCC(C(=O)NCCCN(CC)CC)n1ncn2c(cc3occc32)c1=O` (stereo not drawn) it was inactive: -7.86%; in that of `CCOc1ccc(CNC(=O)C2Cc3cc(S(=O)(=O)N4CCCCCC4)ccc3N2C(C)=O)cc1` (stereo not drawn), inactive: -5.18%; in that of `Cc1ccc(NC(=O)Cn2c(-c3nonc3N)nc3ccccc32)cc1Cl`, inactive: -2.58%.
Regarding `CCOc1ccc(OCC)c(NC(=O)C2CCN(c3cnccn3)CC2)c1`, the activation was inactive: 4.22%.
In the case of `O=C(c1ccc(F)cc1F)N1CCC(c2noc(-c3ccc(S(=O)(=O)N4CCCC4)cc3)n2)CC1` it was inactive: 1.92%.
In the case of `O=C(Nc1nnc(S(=O)(=O)N2CCOCC2)s1)c1ccc(F)cc1`, the activation is inactive: 3.48%.
As for `N#Cc1cccc(NC(=O)c2ccc3c(c2)N(Cc2cccc(Cl)c2)C(=O)c2ccccc2S3(=O)=O)c1`, the activation is inactive: -23%.
For `CCc1ccc(NC(=O)CN(Cc2ccccc2)S(=O)(=O)c2ccc3nc(C)sc3c2)cc1` the value was inactive: -14.8%; for `CCc1ccc(S(=O)(=O)c2nnn3c2nc(NCc2ccccc2OC)c2cc(Cl)ccc23)cc1`, inactive: -9.96%; for `Cc1ccccc1-c1noc(-c2ccccc2OCC(=O)Nc2ccccc2[N+](=O)[O-])n1`, inactive: -0.225%.
Take `COc1ccc(C2NC(=O)N(C)C3=C2C(=O)N(c2ccc(C)cc2)C3)cc1` (stereo not drawn): the activation was inactive: -3.32%.
Consider `Cn1c(=O)oc2cc(S(=O)(=O)Nc3ccc(O)cc3)ccc21`, for which the activation is inactive: 6.47%.
For `Cc1ccc(-c2nc3cccnc3s2)cc1NC(=O)Cc1ccccc1`, the activation is inactive: -6.55%.
As to `Cc1cccc(C)c1OCC(=O)N[C@@H](Cc1ccccc1)[C@@H](O)C[C@H](Cc1ccccc1)NC(=O)[C@H](C(C)C)N1CCCNC1=O`, the activation is inactive: 6.34%.
In the case of `COc1ccc(NC(=O)Cn2ccn(-c3ccccc3)c(=O)c2=O)cc1` it was inactive: -2.62%; in that of `COc1ccccc1Nc1ncnc2c1nc1n2CCCC1`, inactive: 5.94%; in that of `Cc1ccc(-n2nc(C)c3c(C(=O)Nc4ccc(Br)c(C)c4)cc(C)nc32)cc1`, inactive: -1.94%.
`COC(=O)C1=C(C)NC(=O)C1(NC(=O)c1ccccc1C)C(F)(F)F` (stereo not drawn): the activation is inactive: 14.7%.
With `COCCNC(=O)CSc1nc(-c2ccc(C)cc2)nc2c1c(=O)n(C)c(=O)n2C`, the activation was inactive: -10.7%.
For `CCOCCCn1c(=N)c(C(=O)NCC2CCCO2)cc2c(=O)n3cc(C)ccc3nc21` (stereo not drawn) the value was inactive: -5.47%.
In the case of `COc1cccc(-c2nc(SCC(=O)N3CCc4ccccc43)c3c(=O)n(C)c(=O)n(C)c3n2)c1` it was inactive: -6.72%.
With `COc1ccc(CCC(=O)NCc2ccc3c(c2)CCN3C(=O)c2ccc(C)cc2)cc1`, the activation was inactive: -23.6%.
Take `CCOc1ccccc1CNC(=O)CN1C(=O)CCc2cc(S(=O)(=O)N3CCCCC3)ccc21`: the activation is inactive: 0.499%.
For `Cc1cccc(OCC(=O)Nc2ccc3nc(Nc4cccc(Cl)c4)cc(C)c3c2)c1` the value was active: 103%; for `CCOC(=O)c1c(-c2ccccc2)oc2ccc(NS(=O)(=O)c3ccc(C(C)C)cc3)cc12`, inactive: -1.41%; for `COc1ccccc1NC(=O)c1c(NC(=O)c2ccccc2Cl)sc2c1CCC2`, inactive: -4.64%.
For `Cn1c(=O)c(=O)n(C)c2cc(NC(=O)c3ccccc3Br)ccc21` the value was inactive: 20.5%.
In the case of `CC(=O)N1CCc2c(sc3c2c(=O)n(Cc2ccccc2)c(=O)n3CC(=O)Nc2ccc(C)c(F)c2)C1` it was inactive: -21.6%.
In the case of `CCOc1ccc(CNC(=O)CCCn2c(=O)c3cccn3c3ccc(F)cc32)cc1`, the activation is inactive: -16.6%.
Consider `CCc1ccc(NC(=O)CCn2cnc3ccccc3c2=O)cc1`, for which the activation is inactive: -6.4%.
`COc1ccc(CN2C(=O)C(NC(=O)c3ccccc3OC)(C(F)(F)F)N=C2c2ccccc2)cc1` (stereo not drawn): the activation is inactive: -9.89%.
As for `Clc1ccc(C(c2ccccc2Cl)C(Cl)Cl)cc1` (stereo not drawn), the activation was inactive: -4.3% and inactive: 5.36%.
For the compound `CCOC(=O)c1c(C)sc(-c2c(-c3ccc(OC)c(F)c3)[nH]c3c2c(=O)[nH]c(=O)n3C)c1O`, the activation was inactive: -26.5%.
For `CC(C)Oc1ccc(CNC(=O)c2ccc3nc(Cc4ccccc4)oc3c2)cc1` the value was inactive: -5.22%; for `CCC(CC)C(=O)Nc1ccc2nc(SCC(=O)N3c4ccccc4CC3C)sc2c1` (stereo not drawn), inactive: 4.89%.
For `Cc1ccc(-c2nn3c(=O)cc(CN4CCN(C(=O)Nc5cc(Cl)ccc5C)CC4)nc3s2)cc1` the value was inactive: -2.26%; for `Cc1cc(C)cc(OCC(=O)N(Cc2ccc(C)o2)C2CCS(=O)(=O)C2)c1` (stereo not drawn), inactive: -26.3%; for `CN(C)c1ccc(C(=C2C=CC(=[N+](C)C)C=C2)c2ccccc2)cc1`, active: 95%.
On to `COc1cc(OC)c(Nc2ncnc3onc(-c4cccc(Cl)c4)c23)cc1Cl`, for which the activation was inactive: -3.29%.
In the case of `CCC(C)NC(=O)CSc1nc2cc3c(cc2c(=O)n1CCCC(=O)NCc1ccc2c(c1)OCO2)OCO3` (stereo not drawn) it was inactive: -12.1%.
Take `Cc1ccc(CN(Cc2ccco2)C(=O)c2oc3c(C)c(C)ccc3c2C)cc1`: the activation is inactive: 13.7%.
Regarding `COCCNC(=O)c1cc2c(Cl)nc3ccc(C)cc3c2s1`, the activation is inactive: -14.1%.
In the case of `COc1cccc(N(CC(=O)N2CCC(C)CC2)S(=O)(=O)c2ccc(C)cc2)c1` it was inactive: -11.8%; in that of `COc1ccc(Cl)cc1NC(=O)c1c(NCc2ccc(C)o2)sc2c1CCCC2`, inactive: -16.7%.
For the compound `C=CCc1c(C)nc2nc(SCC(=O)Nc3ccc(OCC)cc3)nn2c1C`, the activation is inactive: -2.48%.
For `Clc1ccccc1Cc1cn2cc(-c3ccccc3)nc2s1` the value was inactive: 25.2%; for `O=C1O[C@H]([C@@H](O)CO)C(O)=C1O`, inactive: -33.5%; for `CCc1ccc(NC(=O)CSc2nnc(-c3cc4occc4n3C)n2-c2ccccc2C)cc1`, inactive: -32.3%.
Regarding `Cn1c(=O)c2c(-c3ccccc3Br)n(CCc3ccccc3)cc2n(C)c1=O`, the activation was inactive: -7.47%.
Turning to `CCCCOc1ccc(C2=NC(c3ccccc3)=Nc3ccc(OC)cc3N2)cc1`, the activation was inactive: -22.4%.
`COc1ccccc1CNC(=O)Cn1nc(C)c2nn(-c3ccc(Cl)cc3)c(C)c2c1=O`: the activation was inactive: -26.4%.
In the case of `CC(C)c1ccc(Nc2ncnc3c2c(-c2ccccc2)cn3-c2ccccc2)cc1` it was inactive: 1.05%.
As for `Cc1cc(C)cc(NC(=O)C2(c3cccs3)CCOCC2)c1`, the activation is inactive: 23.3%.
In the case of `Clc1cccc(-n2ncc3c(N4CCN(Cc5ccccc5)CC4)ncnc32)c1` it was inactive: -0.66%.
In the case of `CC(C)COc1ccccc1C1CC(=O)Nc2cc3c(cc21)OCO3` (stereo not drawn) it was inactive: 19%; in that of `COc1ccccc1NC(=O)CSc1nnc2c3ccccc3n(C)c2n1`, inactive: -2.82%; in that of `COc1cccc(CNC(=O)Cn2ccc3cc(S(=O)(=O)N4CCC(C)CC4)ccc32)c1`, inactive: 27.4%.
For `Cc1ccccc1CNC(=O)C1CCN(c2nn3cc(-c4ccc(F)cc4)nc3s2)CC1` the value was inactive: -5.74%; for `NC(=O)c1cc(S(=O)(=O)N2CCN(c3ccc(F)cc3)CC2)cs1`, inactive: 23.7%.
With `COC(=O)c1ccc(NC(C)=O)cc1OC`, the activation was inactive: -10.5%.
As for `CCC(CC)c1nn2c(=O)cc(COc3ccc(NC(=O)c4ccccc4Cl)cc3)nc2s1`, the activation is inactive: 33.4%.
In the case of `Cc1cccc(CNS(=O)(=O)c2ccc3[nH]c(=O)ccc3c2)c1` it was inactive: 2.88%.
For `CC1CCCCN1CCCNC(=O)Cn1ncc2c([nH]c3ccccc32)c1=O` (stereo not drawn) the value was inactive: -8.85%; for `COc1ccc(Cn2c(=O)[nH]c3cc(C(=O)N4CCN(c5cc(C)ccc5C)CC4)ccc3c2=O)cc1`, inactive: 8.99%; for `COc1ccc(C)cc1NC(=O)c1cc(S(=O)(=O)NC2CCCCCC2)ccc1F`, inactive: -8.92%.
As to `COc1ccc(-c2cnnn2-c2ccc(NC(=O)c3c(F)cccc3F)cc2)cc1`, the activation was inactive: -25.1%.
Take `COc1ccc(-c2cnnn2-c2ccc(NC(=O)c3ccc(S(=O)(=O)N(C)C)cc3)cc2)cc1`: the activation was inactive: -0.509%.
In the case of `CC(=O)c1cc(-c2ccccc2)n(CC(=O)NC2CCCCC2)c1C` it was inactive: 8.5%; in that of `CCOC(=O)c1cnc2cc(-c3ccc(Cl)cc3)nn2c1-c1ccccc1`, inactive: 41.4%; in that of `CC(C)Cn1c(=O)c2ccccc2n2c(CCC(=O)Nc3cccc(Cl)c3)nnc12`, inactive: -12.1%.
On to `Cc1ccc(NC(=O)Cn2c(=O)n(CCCCCC(=O)NCc3ccc(F)cc3)c(=O)c3sccc32)cc1C`, for which the activation is inactive: 5.24%.
Take `CCCOc1ccc(-c2nn(-c3ccccc3)cc2C2NC(=O)NC(C)=C2C(=O)OC(C)C)cc1` (stereo not drawn): the activation was inactive: -5.41%.
For `O=C1Nc2c(c(=O)[nH]c(=O)n2-c2ccccc2)C1(NS(=O)(=O)c1ccc(Cl)cc1)C(F)(F)F` (stereo not drawn) the value was inactive: -7.24%; for `CCOc1ccccc1/C=C/c1onc(C)c1S(=O)(=O)N1CCC(C(=O)N(CC)CC)CC1`, inactive: -21.2%.
For `OC(CCN1CCCC1)(c1ccccc1)C1CCCCC1` (stereo not drawn) the value was inactive: 2.36%; for `CCOc1ccc(Cn2nnc3c(=O)[nH]c(C4CCN(C(=O)c5ccccc5)CC4)nc32)cc1`, inactive: -20.4%.
As for `COc1cc(-c2nnc(SCC(=O)NCc3ccccc3Cl)o2)cc(OC)c1OC`, the activation is inactive: 12%.
In the case of `O=C(Cc1ccc(F)cc1)NC1CC(=O)N(c2ccccc2)C1` (stereo not drawn) it was inactive: -3.93%.
In the case of `CCOc1ccc(CCNC(=O)CN2C(=O)C(CC)Oc3ccccc32)cc1OCC` (stereo not drawn) it was inactive: -17.9%; in that of `CC(C)NCC(O)COc1cccc2[nH]ccc12` (stereo not drawn), inactive: 9.98% and inactive: -6.05%.
In the case of `COc1ccc(C(=O)NCc2nnc(SCC(=O)Nc3ccccc3)n2-c2ccc(F)cc2)cc1` it was inactive: 12.5%; in that of `Cn1c(=O)oc2cc(S(=O)(=O)CCC(=O)N3CCN(c4ccccc4)CC3)ccc21`, inactive: -7%.
